# Measured values: PubChem BioAssay AID445 (National Center for Advancing Translational Sciences (NCATS), 2006)
# Among all 110,000 compounds or so, about 40 (0.04%) were called active. The shares of active, inactive and inconclusive entries below differ from those in the screen. Calls come from the whole dose curve; as a rule, active = well fitted curve in the direction sought with a large enough effect in the signal ratio (not every such curve was filed as active); inconclusive = small, poorly fitted or top-dose-only effect, or a change in a side signal; inactive = flat fitted curve, though single readings scatter; the % refers to the signal ratio. A potency beside an inconclusive call is a rough fit, not a confirmed value.
# Experiment: IkB Signaling;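 for IkBa stabilization activation: 0% = basal untreated cells and 100% = reference inhibitor full response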
# Conditions: ABC-DLBCL IkBa-CBG/CBR dual luciferase ratio (green luciferase fused to IkBa over red control in OCI-Ly3 lymphoma cells), 4 h; IkBa stabilization activation: at 57.1 µM (top of the series), scaled: untreated 0%, proteasome inhibitor 100% unless noted
# Method in brief: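 Curves were fitted separately to fusion (green), unfused (red) and ratio luminescence, then classed by r2, magnitude and activity. Cells: OCI-Ly3, 4 h compound plus doxycycline at 37C; 10 uM MG-132 defined full response.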
# Potency is the fitted concentration of half-maximal effect.
Compound,Potency,IkBa stabilization activation
CCN=c1sc(C(=O)NCCc2ccccc2)cc(=O)n1CC,"inconclusive: 31.6 µM [rising, single point]",–
Cc1cccc(C(=O)N2c3nc(-c4ccco4)nn3C3(CCCCC3)[C@@H]3CCCC[C@@H]32)c1,–,inconclusive: 1.89% [signal inhibitor]
Cc1cccc(-n2ncc3c(N4CCCC(C)C4)ncnc32)c1 (stereo not given),–,inconclusive: -0.0902% [signal inhibitor]
C#CCOc1ccc(C2CC(=O)Nc3c2c(C)nn3-c2nc(C)cc(C)n2)cc1 (stereo not given),–,inconclusive: 1.25% [signal inhibitor]
O=c1ccc(-c2ccccc2)nn1Cc1ccc(F)cc1Cl,–,inconclusive: -0.403% [signal inhibitor]
Cc1ccc(S(=O)(=O)c2c(C)nn(C(C)(C)C)c2OC(=O)c2ccco2)cc1,–,inconclusive: -2.05% [signal inhibitor]
CCc1[nH]nc2c1C1(C(=O)N(Cc3ccccc3)c3ccccc31)C(C#N)=C(N)O2 (stereo not given),–,inconclusive: 0.931% [signal inhibitor]
CCCN1CCN(c2ncnc3sc(C(=O)Nc4c(C)cc(C)cc4C)c(C)c23)CC1,–,inconclusive: -2.44% [signal inhibitor]
CCC1CN(S(=O)(=O)c2cc(-c3onc(C)c3C)ccc2C)c2cc(Cl)ccc2O1 (stereo not given),–,inconclusive: -2.51% [signal inhibitor]
O=C(c1ccc2c(c1)OCCO2)C1CCN(C(=O)c2ccc(F)c(F)c2)CC1,–,inconclusive: 2.68% [signal inhibitor]
N#Cc1ccsc1NC(=O)CSc1ncnc2ccccc12,–,inconclusive: 0.359% [signal inhibitor]
COc1cc(NC(=O)C(CC(C)C)NS(=O)(=O)c2ccc3c(c2)CCN3C(C)=O)cc(OC)c1 (stereo not given),–,inconclusive: 0.194% [signal inhibitor]
CCc1ccc(CNCc2c(C(=O)O)n(Cc3ccc(C)cc3)c3cc(C)ccc23)cc1,–,inactive
CC(C)c1ccc2oc(-c3ccc(NC(=O)c4cccc(Br)c4)cc3)nc2c1,inconclusive: 25.1 µM [signal inhibitor],–
CCOC(=O)c1c(CN(CC)CC)oc2cc(Br)c(O)cc12,–,inactive
Cc1ccc2nc(-c3ccc(NC(=O)c4ccc(S(C)(=O)=O)cc4)cc3)sc2c1,–,inactive
CCOc1ccc2nc(N3CCCC(C(=O)Nc4cc(Cl)c(OC)cc4OC)C3)sc2c1 (stereo not given),–,inconclusive: -0.962% [signal inhibitor]
CCCCCCSc1nnc2c(n1)OC(C)Nc1ccc(Br)cc1-2 (stereo not given),–,inconclusive: 11.9% [signal inhibitor]
CCOC(=O)c1ccccc1NC(=O)COc1ccccc1-c1nnc(-c2ccccc2)o1,"inconclusive: 15.8 µM [signal inhibitor, partial curve]",–
C=CCNC(=O)c1c(N)n(-c2cccc(S(N)(=O)=O)c2)c2nc3ccccc3nc12,–,inactive
COc1ccc(CNC(=O)c2ccc(NC(=O)N3CCSc4ccccc43)cc2)cc1,–,inconclusive: 0.0691% [signal inhibitor]
Cc1cc2c(=O)n(Cc3ccco3)c(SCC(=O)c3ccc(Cl)s3)nc2s1,–,inconclusive: 4.38% [signal inhibitor]

Compound,Potency,IkBa stabilization activation
Nn1c(SCC(=O)Nc2ccc(F)cc2F)nnc1C1CCCCC1,"inconclusive: 5.01 µM [signal inhibitor, partial curve]",–
CCC(C(=O)N1CCN(c2cc(C)ccc2C)CC1)n1nc(C)n2c(cc3occc32)c1=O (stereo not given),–,inconclusive: 0.521% [signal inhibitor]
CCN(CCCn1c(=S)[nH]c2ncccc2c1=O)c1ccccc1,–,inactive
Cc1nc2sc(C(c3ccco3)N3CCC(C)CC3)c(O)n2n1 (stereo not given),"inconclusive: 3.98 µM [rising, partial curve]",–
CSc1nc2ccc(NC(=O)C3CCCO3)cc2s1 (stereo not given),–,inactive
Cc1ccc2c(CN3CCN(C(=O)c4ccc(Br)cc4)CC3)cc(=O)oc2c1,–,inconclusive: -0.632% [signal inhibitor]
CCOc1ccc(NC(=O)C2CCCN(c3nnc(C)c4c(C)n(-c5ccccc5)nc34)C2)cc1 (stereo not given),–,inconclusive: -3.95% [signal inhibitor]
Cn1c(Sc2ccc(-c3cccnc3)n2C)ccc1-c1cccnc1,–,"inconclusive: 10.2% [at 11.4 µM, scaled: untreated 0%, proteasome inhibitor 100%]"
COc1ccc(NC(=O)C2CCN(c3ccc(Sc4ccc(C)cc4)nn3)CC2)c(OC)c1,–,inactive
O=C(Nc1nccs1)C1CCCN(S(=O)(=O)c2cccc3cccnc23)C1 (stereo not given),–,inconclusive: -1.8% [signal inhibitor]
Cc1ccc(CNC(=O)CCNS(=O)(=O)c2cccc3nsnc23)cc1,–,inconclusive: 2.21% [signal inhibitor]
CCn1cc(C(=O)N(C)c2ccc(C(C)C)cc2)c2cc(OC)c(OC)cc2c1=O,–,inconclusive: -0.0521% [signal inhibitor]
COc1ccc(C2CC(=O)c3c(C)nc(N4CCN(Cc5ccccc5)CC4)nc3C2)cc1OC (stereo not given),–,inconclusive: 9.28% [signal inhibitor]
CCCN(CCC)CC(O)Cn1cc(/C=C/C(=O)c2ccc(Br)cc2)c2ccccc21 (stereo not given),–,inconclusive: 11.4% [signal inhibitor]
Cc1c(CCC(=O)N2CCCCC2)c(=O)oc2cc3occ(C(C)(C)C)c3cc12,–,inconclusive: -3.8% [signal inhibitor]
Cc1nc(SCC(=O)Nc2ccc(F)cc2)c2oc3ccccc3c2n1,–,inactive
N#CCCn1c(=O)c(-c2cc(F)cc(F)c2)nc2cnc(N3CCOCC3)nc21,–,"inactive: 1.28% [at 11.4 µM, scaled: untreated 0%, proteasome inhibitor 100%]"
CCc1ccc(NC(=O)Cn2c(=O)n(-c3ccc(OC)cc3)c(=O)c3ccc(C(=O)NCc4ccc(C)cc4)cc32)cc1,–,inactive
COc1ccc(CNC(=O)Cc2ccc(NC(=O)N3CCSc4ncccc43)cc2)cc1,–,inconclusive: 7.77% [signal inhibitor]
Cc1ccc(Cc2nc3ccccc3nc2SCC(=O)N2CCN(c3ccc(F)cc3)CC2)cc1,–,inconclusive: 1.7% [signal inhibitor]
CN(Cc1cccc2ccccc12)Cc1cccc2ccccc12,–,"inactive: 1.51% [at 11.4 µM, scaled: untreated 0%, proteasome inhibitor 100%]"
CC(C)N(Cc1nc(-c2ccc(Cl)cc2)no1)C(=O)CCC1CCCC1,–,inactive

Compound,Potency,IkBa stabilization activation
O=C1c2ccccc2C(O)(O)[C@@]1(O)[C@]1(O)C(=O)c2ccccc2C1(O)O,–,"inactive: 1.57% [at 11.4 µM, scaled: untreated 0%, proteasome inhibitor 100%]"
Cc1ccc(Nc2cc(C)nn2-c2nc(C)cc(C)n2)cc1,–,inconclusive: 0.722% [signal inhibitor]
Cc1ccc2oc(NC(=O)N3CCOCC3)cc(=O)c2c1,–,inconclusive: 3.6% [signal inhibitor]
Cc1cc(C)c(Cn2c(C3CC(=O)N(c4ccc(F)cc4)C3)nc3ccccc32)c(C)c1 (stereo not given),–,inconclusive: 5.05% [signal inhibitor]
COc1cccc(NC(=O)CSc2nc(=O)n(Cc3ccncc3)c3c2CCC3)c1,–,inconclusive: 3.26% [signal inhibitor]
Cc1cc(NC(=O)CCC(=O)N(c2ccccc2)C(C(=O)NC2CCCC2)c2cccs2)no1 (stereo not given),–,inconclusive: 0.239% [signal inhibitor]
CCNc1nc2c(c(=O)n(Cc3ccccc3)c(=O)n2C)n1Cc1ccccc1,–,inconclusive: 1.44% [signal inhibitor]
COc1ccc(-c2nc3cnc(N(C)C)nc3n(C[C@H]3CCCO3)c2=O)cc1,–,"inactive: -1.37% [at 11.4 µM, scaled: untreated 0%, proteasome inhibitor 100%]"
N#CCCn1c(=O)c(-c2cc(F)cc(F)c2)nc2cnc(OCc3ccccc3)nc21,–,"inactive: 1.87% [at 11.4 µM, scaled: untreated 0%, proteasome inhibitor 100%]"
Cc1ccc(CN2CCN(C3CCN(C(=O)Nc4ccc(C)cc4Cl)CC3)C(=O)C2=O)cc1,–,inactive
CCCCNS(=O)(=O)c1ccc(C)c(-c2nnc3c4ccccc4c(C)nn23)c1,–,inconclusive: 0.101% [signal inhibitor]
O=C(Nc1ccc(Br)cc1)c1ccc(F)c(S(=O)(=O)N2CCc3ccccc32)c1,–,inconclusive: 5.57% [signal inhibitor]
COc1cc(OC)cc(C(=O)N2CCN(C(=O)COc3ccc4ccccc4c3)CC2)c1,–,inactive
Cc1ccc(S(=O)(=O)C(CNC(=O)C(=O)NCc2ccccc2C)c2cccs2)cc1 (stereo not given),–,inconclusive: 6.62% [signal inhibitor]
CCC(c1nnnn1C1CCCCC1)N1CCN(C2CCCC2)CC1 (stereo not given),–,inactive
CCNC(=O)c1ccc(CSc2nc3ccncc3n2Cc2ccc(F)cc2)cc1,–,inconclusive: 1.34% [signal inhibitor]
O=C(OCC(=O)N1CCc2ccccc21)c1ccccc1,"inconclusive: 25.1 µM [signal inhibitor, partial curve]",–
CC(=O)Nc1nc(-c2ccccc2)nc(-c2ccccc2OC(C)=O)n1,–,inconclusive: -3.47% [signal inhibitor]
O=c1[nH]n(-c2cccc3cccnc23)c(=O)c2ccccc12,–,inactive
COc1ccc(-c2noc(-c3ccccc3C(=O)Nc3cccc(OC)c3)n2)cc1,–,inconclusive: 2.4% [signal inhibitor]
CCc1ccc(Nc2cc(=O)n(C3CCCCC3)c(=O)[nH]2)cc1,–,inconclusive: 2.86% [signal inhibitor]
